Laboratory results taken from article PMC3602376.
No constants are given. Whether binding was seen depends on the method and setting. Some entries that bind do so weakly or less than the wild type. For part of these data: Where a sequence is shown, tags or fusion partners need not be part of it. Each block holds one binder with its values, some of them ahead of it.

What was measured:
Test in all cases: two-hybrid; directed Y2H, ProQuest Two-Hybrid System (pDEST22, pDEST32); NF-YB or NF-YC constructs fused to DBD, bZIP proteins fused to AD; beta-galactosidase (X-Gal) reporter, similar activation seen for two other reporters
[1] = target: T1, NF-YB1 (Arabidopsis thaliana) (UniProt Q9SLG0)
T1 sequence: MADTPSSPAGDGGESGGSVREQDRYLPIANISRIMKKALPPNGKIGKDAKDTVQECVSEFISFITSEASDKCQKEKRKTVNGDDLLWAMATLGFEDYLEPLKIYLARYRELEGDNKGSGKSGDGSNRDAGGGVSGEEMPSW

[2] = target: T2, NF-YB2 (NUCLEAR FACTOR Y, subunit B2), full length (Arabidopsis thaliana (Col-0 cDNA)) (UniProt Q9FGJ3)
T2 sequence: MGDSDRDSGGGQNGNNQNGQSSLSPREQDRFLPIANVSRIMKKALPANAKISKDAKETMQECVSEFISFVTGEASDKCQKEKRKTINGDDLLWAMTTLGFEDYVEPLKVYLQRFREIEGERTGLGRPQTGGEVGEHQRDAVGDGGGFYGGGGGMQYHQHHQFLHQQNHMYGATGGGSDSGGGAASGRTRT

[3] = target: T3, NF-YB2 C-terminal region (B2C, AA 122–190) (Arabidopsis thaliana (Col-0 cDNA)) (UniProt Q9FGJ3)
T3 sequence: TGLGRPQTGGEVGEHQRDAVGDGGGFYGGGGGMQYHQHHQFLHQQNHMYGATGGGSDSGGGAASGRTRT

[4] = target: T4, NF-YB2 N-terminal region (B2N, AA 1–25) (Arabidopsis thaliana (Col-0 cDNA)) (UniProt Q9FGJ3)
T4 sequence: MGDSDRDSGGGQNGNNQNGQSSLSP

[5] = target: T5, NF-YB2 conserved histone fold motif (B2HFM, AA 26–121) (Arabidopsis thaliana (Col-0 cDNA)) (UniProt Q9FGJ3)
T5 sequence: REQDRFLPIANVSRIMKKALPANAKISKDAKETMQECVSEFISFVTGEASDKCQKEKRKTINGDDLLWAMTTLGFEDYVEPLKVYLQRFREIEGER

[6] = target: T6, NF-YB3, full length (Arabidopsis thaliana (Col-0 cDNA)) (UniProt O23310)
T6 sequence: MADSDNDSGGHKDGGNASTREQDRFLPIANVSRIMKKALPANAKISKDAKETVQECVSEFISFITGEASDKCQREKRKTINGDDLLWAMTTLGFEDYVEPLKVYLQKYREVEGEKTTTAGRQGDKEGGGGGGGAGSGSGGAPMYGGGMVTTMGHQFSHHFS

[7] = target: T7, NF-YC4, full length (Arabidopsis thaliana (Col-0 cDNA)) (UniProt Q9FMV5)
T7 sequence: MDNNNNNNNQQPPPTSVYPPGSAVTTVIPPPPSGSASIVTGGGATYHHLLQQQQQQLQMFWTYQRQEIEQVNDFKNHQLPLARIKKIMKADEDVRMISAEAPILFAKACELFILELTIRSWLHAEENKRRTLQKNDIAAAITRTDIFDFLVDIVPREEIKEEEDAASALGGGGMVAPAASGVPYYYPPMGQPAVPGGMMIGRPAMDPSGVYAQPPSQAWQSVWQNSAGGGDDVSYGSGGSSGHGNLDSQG

[8] = target: T8, NF-YC9, full length (Arabidopsis thaliana (Col-0 cDNA)) (UniProt Q8L4B2)
T8 sequence: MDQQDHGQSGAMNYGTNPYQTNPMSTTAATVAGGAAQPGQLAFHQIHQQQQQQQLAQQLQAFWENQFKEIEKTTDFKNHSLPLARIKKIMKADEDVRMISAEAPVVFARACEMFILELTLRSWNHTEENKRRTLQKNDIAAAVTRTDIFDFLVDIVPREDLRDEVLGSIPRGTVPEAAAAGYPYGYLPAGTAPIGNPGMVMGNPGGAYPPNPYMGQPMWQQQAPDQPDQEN

[9] = target: T9, NF-YC4, full length (Arabidopsis thaliana (Col-0 cDNA)), Q9FMV5; settings: remark: other sources report otherwise
T9 chain: T7 sequence

B2: ABA BINDING FACTOR 1 (ABF1), full length (protein, UniProt Q9M7Q5 1-392)
chain: MGTHIDINNLGGDTSRGNESKPLARQSSLYSLTFDELQSTLGEPGKDFGSMNMDELLKNIWTAEDTQAFMTTTSSVAAPGPSGFVPGGNGLQRQGSLTLPRTLSQKTVDEVWKYLNSKEGSNGNTGTDALERQQTLGEMTLEDFLLRAGVVKEDNTQQNENSSSGFYANNGAAGLEFGFGQPNQNSISFNGNNSSMIMNQAPGLGLKVGGTMQQQQQPHQQQLQQPHQRLPPTIFPKQANVTFAAPVNMVNRGLFETSADGPANSNMGGAGGTVTATSPGTSSAENNTWSSPVPYVFGRGRRSNTGLEKVVERRQKRMIKNRESAARSRARKQAYTLELEAEIESLKLVNQDLQKKQAEIMKTHNSELKEFSKQPPLLAKRQCLRRTLTGPW
binding [1]: no binding
binding [2]: no binding
binding [6]: no binding
binding [7]: binds
binding [8]: binds

B3: ABA BINDING FACTOR 2 (ABF2), full length (protein, UniProt Q9M7Q4 1-416)
chain: MDGSMNLGNEPPGDGGGGGGLTRQGSIYSLTFDEFQSSVGKDFGSMNMDELLKNIWSAEETQAMASGVVPVLGGGQEGLQLQRQGSLTLPRTLSQKTVDQVWKDLSKVGSSGVGGSNLSQVAQAQSQSQSQRQQTLGEVTLEEFLVRAGVVREEAQVAARAQIAENNKGGYFGNDANTGFSVEFQQPSPRVVAAGVMGNLGAETANSLQVQGSSLPLNVNGARTTYQQSQQQQPIMPKQPGFGYGTQMGQLNSPGIRGGGLVGLGDQSLTNNVGFVQGASAAIPGALGVGAVSPVTPLSSEGIGKSNGDSSSLSPSPYMFNGGVRGRKSGTVEKVVERRQRRMIKNRESAARSRARKQAYTVELEAEVAKLKEENDELQRKQARIMEMQKNQETEMRNLLQGGPKKKLRRTESGPW
binding [1]: no binding
binding [2]: no binding
binding [6]: no binding
binding [7]: binds
binding [8]: binds

Next, values leading:

binding [1]: no binding
binding [2]: binds
binding [3]: no binding
binding [4]: no binding
binding [5]: no binding
binding [6]: no binding
binding [7]: binds
binding [8]: binds
B1: ABA BINDING FACTOR 3 (ABF3), full length (protein, UniProt Q9M7Q3 1-454)
chain: MGSRLNFKSFVDGVSEQQPTVGTSLPLTRQNSVFSLTFDEFQNSWGGGIGKDFGSMNMDELLKNIWTAEESHSMMGNNTSYTNISNGNSGNTVINGGGNNIGGLAVGVGGESGGFFTGGSLQRQGSLTLPRTISQKRVDDVWKELMKEDDIGNGVVNGGTSGIPQRQQTLGEMTLEEFLVRAGVVREEPQPVESVTNFNGGFYGFGSNGGLGTASNGFVANQPQDLSGNGVAVRQDLLTAQTQPLQMQQPQMVQQPQMVQQPQQLIQTQERPFPKQTTIAFSNTVDVVNRSQPATQCQEVKPSILGIHNHPMNNNLLQAVDFKTGVTVAAVSPGSQMSPDLTPKSALDASLSPVPYMFGRVRKTGAVLEKVIERRQKRMIKNRESAARSRARKQAYTMELEAEIAQLKELNEELQKKQVEIMEKQKNQLLEPLRQPWGMGCKRQCLRRTLTGPW

binding [9]: binds
B4: ELONGATED HYPOCOTYL 5 (HY5), full length, O24646 1-168 (protein)
chain: MQEQATSSLAASSLPSSSERSSSSAPHLEIKEGIESDEEIRRVPEFGGEAVGKETSGRESGSATGQERTQATVGESQRKRGRTPAEKENKRLKRLLRNRVSAQQARERKKAYLSELENRVKDLENKNSELEERLSTLQNENQMLRHILKNTTGNKRGGGGGSNADASL

binding [1]: no binding
binding [2]: no binding
binding [6]: no binding
binding [7]: binds
binding [8]: binds
B5: ABA BINDING FACTOR 4 (ABF4), full length (protein, UniProt Q9M7Q2 1-431)
chain: MGTHINFNNLGGGGHPGGEGSSNQMKPTGSVMPLARQSSVYSLTFDELQNTLGGPGKDFGSMNMDELLKSIWTAEEAQAMAMTSAPAATAVAQPGAGIPPPGGNLQRQGSLTLPRTISQKTVDEVWKCLITKDGNMEGSSGGGGESNVPPGRQQTLGEMTLEEFLFRAGVVREDNCVQQMGQVNGNNNNGFYGNSTAAGGLGFGFGQPNQNSITFNGTNDSMILNQPPGLGLKMGGTMQQQQQQQQLLQQQQQQMQQLNQPHPQQRLPQTIFPKQANVAFSAPVNITNKGFAGAANNSINNNNGLASYGGTGVTVAATSPGTSSAENNSLSPVPYVLNRGRRSNTGLEKVIERRQRRMIKNRESAARSRARKQAYTLELEAEIEKLKKTNQELQKKQAEMVEMQKNELKETSKRPWGSKRQCLRRTLTGPW
